Data from the supplement of paper PMC3334620.
In all, about 33,000 sequences were measured (“E-score (-0.5 to 0.5)”: median about -0.04, highest 2% from about 0.36 on). The list shows a part of the results.

molecular target: T1, Hmlalpha2 (UniProt P0CY09); assay: PBM E-score (8-mer binding enrichment) (E-score (-0.5 to 0.5)); higher = stronger / more preferred TF binding; most listed sequences are background and not binding sites; details: protein concentration: 200 nM; construct: GST-full length
T1 sequence: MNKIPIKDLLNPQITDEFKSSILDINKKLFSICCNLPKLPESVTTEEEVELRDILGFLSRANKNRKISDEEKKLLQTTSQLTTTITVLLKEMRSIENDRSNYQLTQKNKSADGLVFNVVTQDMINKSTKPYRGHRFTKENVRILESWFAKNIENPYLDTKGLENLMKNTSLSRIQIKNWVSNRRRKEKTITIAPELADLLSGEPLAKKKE
Procedure, shortened: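 Full-length yeast transcription factors or their DNA-binding domains, GST-tagged and expressed with PURExpress, were applied at about 100-200 nM to universal all-10-mer Agilent arrays. These arrays had been made double-stranded by primer extension on fresh or once-stripped slides. Detection used fluorescent anti-GST, normalisation used masliner, and E-scores for ungapped eight-base words pooled with reverse complements came from the Universal PBM Analysis Suite.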

Row | Sequence | PBM E-score
1 | AAGTCTAT | -0.0707
2 | CATTTGGG | -0.125
3 | CGCACGTC | -0.00425
4 | GCAATTCA | -0.0436
5 | GAGCCGTA | 0.0752
6 | CACCAATA | 0.0563
7 | AGACTAAT | -0.0364
8 | ACCAGATA | 0.163
9 | AGCTGGCG | -0.106
10 | CCCCACTC | -0.323
11 | ACCTGCTC | 0.00131
12 | CATGTAAC | 0.456
13 | TAGAGTGA | -0.114
14 | ACGCAATC | 0.0463
15 | ACGTTCCA | -0.0324
16 | AACTAGGT | 0.11
17 | CCTGGACG | -0.23
18 | AGCAATTA | 0.0202
19 | GGTGAACA | 0.098
20 | AACTGAGG | -0.0109
21 | AATGACTG | -0.0403
22 | ATTCCGAC | -0.00616
23 | AGGTACAA | 0.21
24 | CGAAGCCA | -0.152
25 | GCGCCTTA | 0.0684

Row | Sequence | PBM E-score
26 | AACCACAA | -0.0241
27 | AAATCTCT | 0.067
28 | GTAACTAC | 0.324
29 | CGACAGAC | -0.166
30 | CGGAGGCA | -0.283
31 | AACCTGTA | 0.131
32 | GACCCCGC | -0.201
33 | AGTGGACG | 0.00558
34 | ACTATTTG | 0.092
35 | CCCAGGAA | -0.13
36 | CCACCCTC | -0.271
37 | ATGCCGAA | -0.00556
38 | ATTCGAAT | -0.107
39 | ACGTTGCA | 0.063
40 | GAAGACGA | -0.0933
41 | CTTGGCTA | -0.0467
42 | CCGAAACA | 0.0293
43 | ATTCCTCA | 0.0961
44 | ACACGTCA | 0.317
45 | AGCTGGAA | -0.179
46 | CTTGACTA | 0.0152
47 | AGTATCAT | 0.118
48 | AGTCTTTA | 0.0617
49 | CCAAGACA | 0.143
50 | CTCGCGAC | -0.269

Row | Sequence | PBM E-score
51 | ACGCACAT | 0.176
52 | ATAGATAG | -0.116
53 | TACGGGCA | -0.11
54 | AGACGGCG | -0.257
55 | CTCATGAC | 0.00516
56 | CCAAGCAG | -0.127
57 | AACCAGTC | -0.0499
58 | AGGCGTGG | -0.379
59 | AATCTGTG | 0.0542
60 | AACTAGCG | -0.0625
61 | CGCTTACG | -0.00687
62 | ATTACGTG | 0.452
63 | GGATCTAA | -0.159
64 | ACACTCCA | 0.027
65 | CTAACCCC | -0.345
66 | GAGGGATA | -0.254
67 | GGATCGTA | -0.0488
68 | GTCGGCTA | -0.00252
69 | CTATCAGC | -0.0414
70 | CCATTGAA | 0.0647
71 | AATAGTAG | 0.0941
72 | GTCATACA | 0.125
73 | AAAGTACG | 0.159
74 | CGCAATTA | 0.141
75 | GTTTGATA | 0.0313

Row | Sequence | PBM E-score
76 | ACAAAGCT | 0.213
77 | ATATCGCC | 0.0196
78 | GCCTTCAA | -0.035
79 | AGTGCATG | 0.108
80 | CCTAGCGC | -0.102
81 | AACACACT | 0.313
82 | ACTTTCAC | 0.0702
83 | CAACCGTC | -0.12
84 | ATTATACC | 0.0784
85 | CTCTAGTC | -0.289
86 | TGACCCAA | -0.0562
87 | TAGCCAAA | -0.0307
88 | ATATTGCA | -0.0157
89 | ATCAGAAC | -0.0344
90 | AAACTGGC | -0.0453
91 | CCTTGCGA | -0.239
92 | AGCTGGCA | -0.193
93 | AGGGGGTA | -0.336
94 | AGTCGGAG | -0.235
95 | GGCACGTA | 0.226
96 | CTTTCGAC | -0.0323
97 | ATACGGGG | -0.136
98 | GCAACGGC | -0.0782
99 | GCCACTAC | -0.184
100 | GGCCCTCA | -0.342

Row | Sequence | PBM E-score
101 | AGCCCTGG | -0.272
102 | ACGCATAA | 0.208
103 | ACACATTA | 0.268
104 | ACACAGAT | 0.264
105 | CCCAGCGA | -0.183
106 | GGCCAACA | -0.101
107 | CAGCAATG | -0.0445
108 | AGACGGTG | -0.231
109 | CAAGACAG | 0.0592
110 | ACGAGTTC | 0.138
111 | CTACCTTC | 0.0209
112 | CATGATTA | 0.25
113 | AACGCCAC | 0.0709
114 | CAAAGACG | -0.153
115 | ACTACCCG | 0.0106
116 | AAAGCAGC | -0.0392
117 | CTCATCGA | -0.164
118 | GCCGCCGC | -0.264
119 | ATGCCGAC | -0.0235
120 | CTACTAAC | 0.275
121 | ACCTCTCA | -0.147
122 | ATGGGGAC | -0.193
123 | CCATAGAG | -0.305
124 | GAGACCTA | -0.12
125 | GCCGTTCA | -0.193

Row | Sequence | PBM E-score
126 | ACCACAAT | -0.143
127 | GAACGCGC | 0.155
128 | GCGACGAC | -0.276
129 | AGAGTGGA | -0.0454
130 | CAATGCCC | -0.236
131 | CACCGATC | -0.212
132 | ACTCACAA | 0.0844
133 | AGGTGAAA | -0.0005
134 | AATTCATG | 0.209
135 | GCGGATCC | -0.336
136 | CCACAAGG | -0.171
137 | CCACTAGC | -0.111
138 | GCCCGTAA | 0.00975
139 | AGATCTAA | -0.0541
140 | AGAGTGCG | -0.0975
141 | GAAGTTGA | -0.0285
142 | AAGGGTAT | 0.0353
143 | CGACCGAA | -0.0499
144 | CAGAGAAG | -0.0752
145 | GGAATAGA | -0.0449
146 | AGGCTGAC | -0.223
147 | CCATAATC | -0.159
148 | AAGCTAGC | -0.0149
149 | ATGCCGTG | 0.0267
150 | ATGAACAG | 0.153

Row | Sequence | PBM E-score
151 | CAGGCGTC | -0.124
152 | ACTGACAG | -0.146
153 | CTCCTCCA | -0.0423
154 | AGAGGAAC | -0.219
155 | ATGAATAG | -0.119
156 | AGCGTTAG | 0.0165
157 | GTGAAAAA | 0.128
158 | CCCTTAGG | -0.209
159 | ACGAGAGT | -0.0108
160 | CAATCGAC | 0.0988
161 | AAAGCTGA | 0.0781
162 | AGCTTAGC | 0.128
163 | GTTATTTA | 0.345
164 | AGGTTTCC | -0.0327
165 | CGAAGTCC | -0.235
166 | ATATACGC | 0.172
167 | TGCCCGCA | -0.00776
168 | GCCGCTGA | -0.119
169 | AATGCTGA | 0.0951
170 | GACCCTCA | -0.257
171 | GTATAAGA | 0.116
172 | CCCACCTC | -0.258
